Screen size: about 120,000 compounds; about 5,300 (4.4%) were called active. Inconclusive results, whose numbers are uncertain, are shown with a selection of clear calls. Calls come from the whole dose curve; as a rule, active = well fitted inhibition curve with a large enough effect; inconclusive = small, poorly fitted or top-dose-only effect; inactive = no such curve, though single readings can be large or run the other way. Where the call is inconclusive, the potency comes from a doubtful curve fit.
assay: qHTS Primary assay for Inhibitors of Plasmodium falciparum Dd2 growth in vitro; note: nearly all actives have a fitted effect of over 65% in size; details: P. falciparum Dd2 growth, SYBR Green, 72 h; series mostly up to 28.9 µM
In short: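 Readout: SYBR Green fluorescence, 485 nm excitation, 535 nm emission, after ~16 h lysis at 37C. Before that, Dd2-infected red cells (2.5% hematocrit) grew 72 h with compound, 29 uM top final concentration.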
Potency is the fitted concentration of half-maximal effect; tags give direction and shape of the fitted curve.

Row | SMILES | Potency
1 | CCOc1ccccc1NC(=O)C1CCN(S(=O)(=O)c2ccc3c(c2)CCCN3C(C)=O)CC1 | inconclusive: 11.2 µM [inhibitor, single point]
2 | CN1c2cc(C(=O)Nc3ccc(F)cc3)ccc2C(=O)N2CCCCC21 (stereo not given) | inconclusive: 1.78 µM [inhibitor, full curve]
3 | NC(=O)c1nnn([C@H]2CCN3C(=O)[C@@H](Cc4ccccc4)NC(=O)[C@@H]3C2)c1C(N)=O | inactive
4 | O=C(Cc1ccccc1)N1CCC(N2C(=O)C(OCC3CC3)C23CCCCC3)CC1 (stereo not given) | inconclusive: 12.6 µM [inhibitor, single point]
5 | CCc1noc(-c2cccn3c(CNC(=O)c4cc(Cl)ccc4F)nnc23)n1 | inconclusive: 3.16 µM [inhibitor, partial curve, poor fit]
6 | CCN(CC)Cc1cnc2c(C(=O)NC(C)c3ccccc3)cnn2c1 (stereo not given) | inconclusive: 12.6 µM [inhibitor, partial curve]
7 | CCCC1=Nc2cc(C(=O)NCc3ccccc3Cl)ccc2Sc2ccc(Cl)cc21 | inconclusive: 12.6 µM [inhibitor, partial curve, poor fit]
8 | N#Cc1ccccc1S(=O)(=O)N1C[C@@H]2C[C@H](C1)c1ccc(-c3ccc(Cl)cc3)c(=O)n1C2 | inconclusive: 12.6 µM [inhibitor, single point]
9 | Cc1ccc(N(CC(=O)Nc2cc(C)ccc2C)S(=O)(=O)c2c(C)noc2C)cc1 | inconclusive: 10 µM [inhibitor, single point]
10 | COCc1nnc2n1CCC(NC(=O)Cn1nc(C(F)(F)F)cc1C)CC2 (stereo not given) | inactive
11 | CC(C)c1noc(C2CCCN(Cc3ccccc3)CCC(=O)NCC2)n1 (stereo not given) | active: 4.47 µM
12 | CCS(=O)(=O)N(C1CC1)C1CCOC2(CCN(C(=O)Nc3cccc(C)c3)CC2)C1 (stereo not given) | inactive
13 | Cc1occc1C(=O)NC1CCc2nn(CC3CC3)c(=O)n2CC1 (stereo not given) | inactive
14 | COc1ccc(-c2cc(C[C@@H]3C[C@H](NC(=O)c4ccccc4)C3(C)C)no2)cc1 | inconclusive: 2.51 µM [inhibitor, partial curve, poor fit]
15 | O=C(c1cn[nH]c1-c1ccc(F)cc1)N1CCCC(Cc2noc(-c3ccccc3)n2)C1 (stereo not given) | inconclusive: 11.2 µM [inhibitor, partial curve, poor fit]
16 | CC1=C[C@@H](CNC(=O)c2cnccn2)[C@H](C(C)C)C[C@H]1Cc1nc2ccc(F)cc2[nH]1 | inconclusive: 0.891 µM [inhibitor, full curve, poor fit]
17 | O=S(=O)(Cc1ccccc1)NC[C@H]1Cn2c(-c3ccc(F)cc3)cnc2CO1 | inactive
18 | CC(=O)c1cccc(NS(=O)(=O)c2cc(-c3cnc(C4CC4)o3)ccc2C)c1 | inconclusive: 0.0794 µM [inhibitor, full curve, poor fit]
19 | CN(Cc1ccccc1C(F)(F)F)Cc1ccnn1C | inactive
20 | COc1ccc(CC(=O)N2CCC(Cc3nc(-c4ccccc4)no3)CC2)cc1Cl | inactive

Row | SMILES | Potency
21 | O=C(C1CCCC1)N1CCn2c(nnc2-c2ccccc2)C1 | inconclusive: 3.16 µM [inhibitor, partial curve, poor fit]
22 | c1cncc(C2=NOC3(CCCN(CC4CCCC4)C3)C2)c1 (stereo not given) | inconclusive: 12.6 µM [inhibitor, single point]
23 | CC(C)(C)OC(=O)N1CCC(c2c(C(=O)N3CCCCC3)cnn2-c2ccccc2Cl)CC1 | inconclusive: 11.2 µM [inhibitor, single point]
24 | C=CCNC(=O)[C@@H]1Cc2cn(CC#CC)c3cccc(c23)[C@H](CC(C)C)N1 | inconclusive: 5.62 µM [inhibitor, single point]
25 | Cn1c(=O)oc2cc(S(=O)(=O)CCC(=O)NCCc3ccc(Cl)cc3)ccc21 | inconclusive: 11.2 µM [inhibitor, single point]
26 | NC1CCc2nn(CC(=O)NCc3ccc(F)cc3Cl)c(=O)n2CC1 (stereo not given) | inactive
27 | COc1ccc(N2CC3CCC(C2)N3C(=O)c2c(C)noc2C)cc1 | inactive
28 | COc1ccccc1OCc1nc(C#N)c(NCc2ccc(C)cc2)o1 | inconclusive: 7.94 µM [inhibitor, partial curve, poor fit]
29 | CCOc1cc(-c2ccc(OC(=O)c3ccc(OC)cc3)c(OC)c2)cc(=O)c2c(C)oc(C)c12 | inconclusive: 12.6 µM [inhibitor, single point]
30 | O=C(Nc1ccccc1)N1C[C@@H](F)[C@@H](OCc2nc3ccccc3o2)C1 | inactive
31 | O=C(Nc1ccc(Oc2cccnc2)cc1)C1CCN(CCCc2ccccc2)CC1 | inconclusive: 2.51 µM [inhibitor, partial curve, poor fit]
32 | O=C(c1ccc(Cn2ccn3nc4c(c3c2=O)CCCC4)cc1)N1CCN(c2ccccc2F)CC1 | inconclusive: 17.8 µM [inhibitor, single point]
33 | CC(C)c1ccc(NS(=O)(=O)c2ccc3[nH]cc(C(=O)NCCc4ccccc4)c(=O)c3c2)cc1 | inconclusive: 10 µM [inhibitor, partial curve, poor fit]
34 | CCOC(=O)c1cn(C2CN(C(=O)Cc3ccccc3F)C2)nn1 | inconclusive: 12.6 µM [inhibitor, partial curve, poor fit]
35 | COc1ccc(-n2nc(C3CCN(Cc4ccc(F)cc4)CC3)[nH]c2=O)cc1 | inactive
36 | CN1[C@@H](CCC(=O)NCc2cccnc2)CNC(=O)[C@H]2NCC[C@H]21 | inconclusive: 5.62 µM [inhibitor, single point]
37 | CCOC(=O)CC(NC(=O)CCc1c(C)nc2c(c1C)c(=O)n(C)c(=O)n2C)c1ccc(OCC)c(OC)c1 (stereo not given) | inconclusive: 17.8 µM [inhibitor, single point]
38 | Cc1noc(C)c1Cn1ccn2nc3c(c2c1=O)CCCC3 | inconclusive: 10 µM [inhibitor, single point]
39 | CNC(=O)[C@H]1C[C@H](Oc2ccccc2)CN1Cc1cn(C)c2ccc(OC)cc12 | inconclusive: 10 µM [inhibitor, single point]
40 | Cc1cc(C)c(CNC(=O)c2cc(-c3ccccc3C)cc3c2OCCN3C(C)C)c(=O)[nH]1 | inactive
